Experimental data published in publication PMC4336329 (PLoS ONE, 2015).
The campaign covered roughly 310,000 compounds. About 2,200 (0.71%) showed an effect of 50% or more. The effect is printed as a negative number. The list shows a part of the results.

What follows are molecules tested against human ether-à-go-go-related gene (hERG) potassium channel (human, UniProt Q12809) (assay: primary screen, population patch clamp on CHO cells stably expressing hERG).
Sequence of human ether-à-go-go-related gene (hERG) potassium channel (Q12809 whole entry, looked up): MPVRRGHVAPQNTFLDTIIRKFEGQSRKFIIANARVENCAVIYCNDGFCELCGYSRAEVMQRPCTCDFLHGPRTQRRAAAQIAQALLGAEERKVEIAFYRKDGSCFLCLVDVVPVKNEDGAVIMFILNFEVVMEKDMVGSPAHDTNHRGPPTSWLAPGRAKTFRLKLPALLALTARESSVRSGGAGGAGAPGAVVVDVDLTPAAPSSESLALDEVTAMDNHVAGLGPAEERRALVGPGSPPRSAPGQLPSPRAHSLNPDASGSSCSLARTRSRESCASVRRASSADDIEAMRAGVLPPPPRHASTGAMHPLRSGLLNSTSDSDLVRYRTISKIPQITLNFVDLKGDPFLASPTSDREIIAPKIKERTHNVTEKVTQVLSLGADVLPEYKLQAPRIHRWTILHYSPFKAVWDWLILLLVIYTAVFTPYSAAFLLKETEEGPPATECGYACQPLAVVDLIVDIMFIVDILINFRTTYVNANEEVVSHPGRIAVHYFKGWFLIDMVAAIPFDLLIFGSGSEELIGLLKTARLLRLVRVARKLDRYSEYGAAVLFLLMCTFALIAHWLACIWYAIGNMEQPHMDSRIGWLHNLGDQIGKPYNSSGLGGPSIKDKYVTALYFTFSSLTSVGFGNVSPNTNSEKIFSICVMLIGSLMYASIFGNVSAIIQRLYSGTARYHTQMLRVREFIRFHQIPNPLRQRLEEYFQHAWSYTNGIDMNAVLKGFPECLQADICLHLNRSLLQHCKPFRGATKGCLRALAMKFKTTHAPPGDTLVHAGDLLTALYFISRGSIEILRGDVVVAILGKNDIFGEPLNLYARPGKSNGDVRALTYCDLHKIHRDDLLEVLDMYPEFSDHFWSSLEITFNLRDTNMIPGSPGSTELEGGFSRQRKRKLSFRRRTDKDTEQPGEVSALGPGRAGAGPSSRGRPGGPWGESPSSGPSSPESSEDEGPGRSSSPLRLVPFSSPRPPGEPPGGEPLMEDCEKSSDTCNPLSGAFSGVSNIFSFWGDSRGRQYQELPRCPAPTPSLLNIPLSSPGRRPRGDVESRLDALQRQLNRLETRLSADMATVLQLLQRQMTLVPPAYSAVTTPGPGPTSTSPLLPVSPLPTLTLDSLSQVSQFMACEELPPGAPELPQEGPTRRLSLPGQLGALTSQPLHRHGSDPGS

Row | Compound | hERG current change (%, negative = inhibition) at 1uM
1 | COc1ccc(N2CCN(CC(O)COc3ccc(C)cc3C)CC2)cc1.Cl (centres unmarked) | -54.6%
2 | CCC(=O)Nc1nn(C)c2nc3c(C)cccc3cc12 | -0.111%
3 | CCC(Oc1ccccc1)C(=O)OCC(=O)N(CC)c1c(N)n(Cc2ccccc2)c(=O)[nH]c1=O (centres unmarked) | 16.1%
4 | NS(=O)(=O)c1ccc(CNC(=O)Cc2cccs2)cc1 | 20.6%
5 | CCOc1ccccc1OCCCC(=O)Nc1cccc(-n2cnnn2)c1C | 7.99%
6 | COc1cc(CNc2ccc(O)cc2)cc(Br)c1OCc1ccccc1 | 20.4%
7 | CC(=O)c1ccc(S(=O)(=O)Oc2ccc(-c3ccc(C(=O)O)cc3)cc2)cc1 | 15.2%
8 | CCCCN(CCCC)Cc1ccc(C(=O)NNC(=O)Nc2ccccc2)o1 | 9.26%
9 | O=C(COC(=O)/C=C/c1ccccc1)NCc1ccccc1Cl | 19.3%
10 | C=CCNc1nc(Nc2ccc(OC)cc2)nc(OCC)n1 | 10.2%
11 | CCOC(=O)c1c(C)n(C)c2ccc(OCC(N)=O)cc12 | 12.9%
12 | NNc1nc(-c2ccccc2)c2cc(Cl)ccc2n1 | 5.88%
13 | COc1ccc2oc(C(=O)OCC(=O)NC(=O)NC(C)C)c(C)c2c1 | 15.6%
14 | CCC(=O)Oc1ccc(C(=O)Nc2cccc(NC(=O)c3ccco3)c2)cc1 | 5.01%
15 | CCOc1ccc2nc(N/C(N)=N/S(C)(=O)=O)nc(C)c2c1 | 6.17%
16 | COc1ccc(Cl)cc1Nc1ncnc2sc(C)c(S(=O)(=O)N3CCC(C)CC3)c12 | 5.4%
17 | Cc1ccc(N2CCN(C(=O)c3ccccc3NC(=O)C3CCCCC3C(=O)O)CC2)cc1 (centres unmarked) | 1.54%
18 | Cn1c(NC(=O)c2cc(-c3ccc4c(c3)OCO4)nc3ccccc23)cc(=O)n(C)c1=O | 2.87%
19 | O=C(CN1CCC(NC(=O)C2CC2)CC1)Nc1ccccc1[N+](=O)[O-] | 14.5%
20 | COc1ccc(C(CCN2CCCCC2)c2c(OC)cc(OC)c3c(-c4ccccc4)cc(=O)oc23)cc1 (centres unmarked) | -4.48%
21 | CC(=O)COC(=O)c1cccc(N2C(=O)C3C4C=CC(C4)C3C2=O)c1 (centres unmarked) | 2.21%
22 | Cc1nc(-c2ccccc2)nc2[nH]c(=O)n(-c3ccccc3)c(=O)c12 | 13.7%

Row | Compound | hERG current change (%, negative = inhibition) at 1uM
23 | O=C(Oc1ccc(-c2cn3c(n2)SCC3)cc1)c1ccccc1 | -1.03%
24 | Cc1ccc(N2C(=O)CC(n3nc(C)cc3C)C2=O)cc1 (centres unmarked) | -11.4%
25 | COc1cc(-n2c(C)nc3cc(C(=O)NCC4CCCO4)ccc32)cc(OC)c1OC (centres unmarked) | 1.53%
26 | Cn1c(=O)n(C)c2cc(NC(=O)COc3ccc(Cl)cc3)ccc21 | -22.1%
27 | CCOc1ccc(C2C(C#N)=C(N)Oc3cc(C)oc(=O)c32)cc1 (centres unmarked) | 14.5%
28 | O=C(NNC1=NCCC1)C1CC1 | 12.6%
29 | COc1ccc(Cl)cc1NC(=S)NCc1cccnc1 | 7.74%
30 | CC12CCC(C(=O)O)(c3nc(C#N)c(C#N)nc31)C2(C)C (centres unmarked) | 14%
31 | COc1ccc(-c2cn(Cc3ccc([N+](=O)[O-])cc3)nn2)cc1 | 6.38%
32 | CCCCOc1ccc(OCCCC)c2c1NC1(N2)C(=O)N(C(C)=O)c2ccccc21 | 12%
33 | O=C(CC(C(=O)N1CCc2ccccc21)n1ccnc1)NCc1cccnc1 (centres unmarked) | 2.65%
34 | Cc1ccc2oc(=O)c(/C=C(\O)c3sc(C)nc3C)nc2c1 | 3.15%
35 | CCN(C(=O)CSc1nnc(-c2cccs2)n1CC)C1CCS(=O)(=O)C1 (centres unmarked) | 10.7%
36 | CCC(=O)c1ccc(OCC(=O)NCCC2=CCCCC2)c(OC)c1 | 2.5%
37 | COc1cc(NS(=O)(=O)c2cc(C(=O)N3CCN(C(C)=O)CC3)ccc2OC)cc(OC)c1 | 4.27%
38 | CCCCNC(=O)CNC(=O)c1nn(-c2ccc(OC)cc2OC)c(=O)c2ccccc12 | 12.2%
39 | c1ccc2c(c1)CC(CN1CCNCC1)O2 (centres unmarked) | -14.3%
40 | COc1ccccc1-c1cc(C(F)(F)F)nc(S(=O)(=O)CCCC(=O)Nc2cc(C)on2)n1 | -6.01%
41 | N#Cc1ccccc1 | 13.4%
42 | Cc1nc2ccccc2nc1OCC(=O)Nc1cc(C(F)(F)F)ccc1N1CCOCC1 | 8.36%
43 | COc1cc(C2/C(=C(\O)c3ccc4c(c3)CC(C)O4)C(=O)C(=O)N2Cc2ccco2)ccc1O (centres unmarked) | 1.35%
44 | COc1ccc(N(C)C(=S)Nc2ccc3nc(C)c(C)nc3c2)cc1 | 16.1%
